From a collection of fitness landscapes (doi:10.1126/science.1257360)
Some of the results follow.

B1: PhoQ; a variant is named by its letters at X, in order, P23837 (parent)
chain: MKKLLRLFFPLSLRVRFLLATAAVVLVLSLAYGMVALIGYSVSFDKTTFRLLRGESNLFYTLAKWENNKLHVELPENIDKQSPTMTLIYDENGQLLWAQRDVPWLMKMIQPDWLKSNGFHEIEADVNDTSLLLSGDHSIQQQLQEVREDDDDAEMTHSVAVNVYPATSRMPKLTIVVVDTIPVELKSSYMVWSWFIYVLSANLLLVIPLLWVAAWWSLRPIEALAKEVRELEEHNRELLNPATTRELTSLVRNLNRLLKSERERYDKYRTTLTDLTHSLKTPLXXLQXXLRSLRSEKMSVSDAEPVMLEQISRISQQIGYYLHRASMRGGTLLSRELHPVAPLLDNLTSALNKVYQRKGVNISLDISPEISFVGEQNDFVEVMGNVLDNACKYCLEFVEISARQTDEHLYIVVEDDGPGIPLSKREVIFDRGQRVDTLRPGQGVGLAVAREITEQYEGKIVAGESMLGGARMEVIFGRQHSAPKDE

Variants of: B1
Experiment: enrichment ratio after two sorts for PhoP signalling (ratio (wild type AVST 3.29)); higher = more functional
Conditions: with PhoP (E. coli)

Variant	enrichment ratio
SYFQ	≤ 0.25
WLFS	≤ 0.25
THVA	0.983
DTPR	≤ 0.25
NVER	≤ 0.25
QNMR	≤ 0.25
LGNV	≤ 0.25
GSWA	≤ 0.25
TYDN	≤ 0.25
LNKL	≤ 0.25
SHCH	16
LMEH	≤ 0.25
PWTD	≤ 0.25
PADS	≤ 0.25
IHCC	≤ 0.25
PSDE	≤ 0.25
MNTN	≤ 0.25
HSMC	≤ 0.25
QLYK	≤ 0.25
NTDW	≤ 0.25
WQGK	≤ 0.25
MHNC	≤ 0.25
DMMN	≤ 0.25
LAPE	≤ 0.25

Variant	enrichment ratio
RPQR	≤ 0.25
YEKL	≤ 0.25
TCLM	1.01
VYYY	≤ 0.25
HSVT	≤ 0.25
RLYL	≤ 0.25
AMWK	≤ 0.25
KKVG	≤ 0.25
KQGP	≤ 0.25
HWHY	≤ 0.25
NLTQ	≤ 0.25
MNRS	0.447
PIFC	≤ 0.25
QHVD	≤ 0.25
TYND	≤ 0.25
QGMP	≤ 0.25
YEIW	≤ 0.25
LCVD	≤ 0.25
EIQR	≤ 0.25
LLIV	≤ 0.25
DFEN	≤ 0.25
AYFD	≤ 0.25
MMDD	≤ 0.25
MDGD	≤ 0.25

Variant	enrichment ratio
SCDH	≤ 0.25
KEPM	≤ 0.25
KTIR	≤ 0.25
FQHF	≤ 0.25
SYAK	≤ 0.25
HVKK	≤ 0.25
WLIW	≤ 0.25
DANY	≤ 0.25
KRTK	≤ 0.25
LACT	≤ 0.25
AYWP	≤ 0.25
VHTI	≤ 0.25
SIML	6.65
LAEC	≤ 0.25
KPLR	≤ 0.25
WIVI	≤ 0.25
MCMV	1.25
RICR	≤ 0.25
PAKR	≤ 0.25
YPMP	≤ 0.25
HRQA	≤ 0.25
CKDS	≤ 0.25
NHCC	≤ 0.25
YSTW	≤ 0.25

Variant	enrichment ratio
RPLQ	≤ 0.25
PFLS	≤ 0.25
QLPI	≤ 0.25
FHSG	≤ 0.25
PQTA	≤ 0.25
PYAP	≤ 0.25
NVHG	≤ 0.25
QLQY	≤ 0.25
DKIG	≤ 0.25
IYRE	≤ 0.25
PICT	≤ 0.25
GQPV	≤ 0.25
VWLD	≤ 0.25
WHFA	≤ 0.25
NNNI	≤ 0.25
FHFD	≤ 0.25
LVSP	≤ 0.25
HSVV	≤ 0.25
PATN	≤ 0.25
QFRS	≤ 0.25
DCGQ	≤ 0.25
VCIW	≤ 0.25
VESG	3.66
ITHH	≤ 0.25

Variant	enrichment ratio
PPWI	≤ 0.25
VWPR	≤ 0.25
HAWR	≤ 0.25
VRTF	≤ 0.25
ASAA	13.4
TAPR	≤ 0.25
KVKC	≤ 0.25
STRN	≤ 0.25
DVGG	≤ 0.25
GMIT	≤ 0.25
PFRG	≤ 0.25
TMKA	≤ 0.25
AHTP	≤ 0.25
GIGI	≤ 0.25
VCTT	≤ 0.25
FGFF	≤ 0.25
HTVH	≤ 0.25
FWYD	≤ 0.25
RFQT	≤ 0.25
ENVQ	≤ 0.25
GHFQ	≤ 0.25
YPSI	≤ 0.25
LSMA	≤ 0.25
AKDL	≤ 0.25

Variant	enrichment ratio
HMGM	≤ 0.25
RHPD	≤ 0.25
KAWW	≤ 0.25
QRSW	≤ 0.25
GCTI	0.873
GPRQ	≤ 0.25
DQQR	≤ 0.25
NNML	8.6
YWLA	≤ 0.25
SMAP	≤ 0.25
SLWM	≤ 0.25
IHIF	≤ 0.25
DQAY	≤ 0.25
DETA	≤ 0.25
IKQY	≤ 0.25
IRFL	≤ 0.25
WFKT	≤ 0.25
ISNK	≤ 0.25
SGAQ	2.89
SFCY	≤ 0.25
MEVI	18.2
WIWK	≤ 0.25
VWMM	≤ 0.25
GCFM	≤ 0.25

Variant	enrichment ratio
VWQM	≤ 0.25
TMCH	15.9
KRYA	≤ 0.25
WLGD	≤ 0.25
AEFI	5.49
STWK	≤ 0.25
HETQ	≤ 0.25
NCLK	≤ 0.25
ALGF	3.9
NYIY	≤ 0.25
NADA	≤ 0.25
VCCM	13.1
YPVD	≤ 0.25
SSPE	≤ 0.25
HSNE	≤ 0.25
SSFK	≤ 0.25
LQKI	≤ 0.25
SRFS	≤ 0.25
TGSI	19.6
AMVD	≤ 0.25
LMVC	≤ 0.25
MPQA	≤ 0.25
KFVH	≤ 0.25
SLVP	≤ 0.25

Variant	enrichment ratio
EQVK	≤ 0.25
HITF	≤ 0.25
NPVE	≤ 0.25
NIWG	≤ 0.25
GGFT	≤ 0.25
ANMP	≤ 0.25
MHVF	≤ 0.25
SWPG	≤ 0.25
TTAT	4.52
LTDI	≤ 0.25
MPSQ	≤ 0.25
SSYA	≤ 0.25
FSVG	≤ 0.25
YDCW	≤ 0.25
SVRH	≤ 0.25
HNQS	≤ 0.25
TYVC	≤ 0.25
REYE	≤ 0.25
APIW	≤ 0.25
PTCI	≤ 0.25
GQWL	≤ 0.25
FVEK	≤ 0.25
KRSI	≤ 0.25
EASD	≤ 0.25

Variant	enrichment ratio
DNHG	≤ 0.25
VGMV	9.12
DALW	≤ 0.25
QMAP	≤ 0.25
RWAP	≤ 0.25
ADIT	≤ 0.25
TMII	≤ 0.25
YVVK	≤ 0.25
LPQR	≤ 0.25
YVWA	≤ 0.25
RDNR	≤ 0.25
RYVH	≤ 0.25
MVKN	≤ 0.25
LKTE	≤ 0.25
TSWW	≤ 0.25
HFVL	≤ 0.25
FHIE	≤ 0.25
RDRK	≤ 0.25
WKSW	≤ 0.25
WSEK	≤ 0.25
CFCG	≤ 0.25
KCFD	≤ 0.25
DLHI	≤ 0.25
RWFQ	≤ 0.25

Variant	enrichment ratio
QQWW	≤ 0.25
QLWR	≤ 0.25
HQVG	≤ 0.25
QHNL	7.19
HRCQ	≤ 0.25
MVYM	4.81
NMGD	≤ 0.25
HGPS	≤ 0.25
KKGF	≤ 0.25
IDLR	≤ 0.25
GGMY	≤ 0.25
YHIA	≤ 0.25
TGRN	≤ 0.25
NGKH	≤ 0.25
HRRI	≤ 0.25
SIQE	≤ 0.25
NYAV	≤ 0.25
TDQD	≤ 0.25
QSGG	≤ 0.25
FMME	≤ 0.25
AFWR	≤ 0.25
HWTD	≤ 0.25
LGQF	≤ 0.25
PAWE	≤ 0.25

Variant	enrichment ratio
DMNK	≤ 0.25
NAVP	≤ 0.25
FHEA	≤ 0.25
PTSQ	≤ 0.25
AEDL	≤ 0.25
SPTI	≤ 0.25
TVCP	≤ 0.25
DWKW	≤ 0.25
LFVW	≤ 0.25
FGGK	≤ 0.25
LQIW	≤ 0.25
HEWH	≤ 0.25
EVNK	≤ 0.25
LKKL	≤ 0.25
QPFP	≤ 0.25
IWTS	≤ 0.25
VEML	≤ 0.25
NQLK	≤ 0.25
PEST	≤ 0.25
RLSQ	≤ 0.25
PTDR	≤ 0.25
STIP	≤ 0.25
EAKQ	≤ 0.25
KVAM	≤ 0.25

Variant	enrichment ratio
GANR	≤ 0.25
GRQH	≤ 0.25
ILSQ	≤ 0.25
RDQC	≤ 0.25
SLRQ	≤ 0.25
SPYI	≤ 0.25
TDLP	≤ 0.25
EEHA	≤ 0.25
HHQF	≤ 0.25
DTDF	≤ 0.25
SLYY	≤ 0.25
KFFH	≤ 0.25
GEHA	≤ 0.25
QHAL	≤ 0.25
AHAV	≤ 0.25
KHAG	≤ 0.25
QKIT	≤ 0.25
WHWY	≤ 0.25
WMVH	4.32
VTVV	≤ 0.25
LQFL	≤ 0.25
TALV	10.2
YRNL	≤ 0.25
LMMW	≤ 0.25

Variant	enrichment ratio
TDVP	≤ 0.25
NFKD	≤ 0.25
SQTY	8.07
FHCP	≤ 0.25
ECDV	≤ 0.25
HKPV	≤ 0.25
MLTY	≤ 0.25
LYCV	≤ 0.25
WNPM	≤ 0.25
DGPY	≤ 0.25
SVEI	≤ 0.25
VYTQ	≤ 0.25
HVVS	≤ 0.25
VRYP	≤ 0.25
LQKR	≤ 0.25
TNWP	≤ 0.25
WNCT	≤ 0.25
KPDL	≤ 0.25
